The text below walks through data of the supplement of paper PMC4967469.

pIC50: −log10 of the molar value. By IC50 is meant the dose at which the fit gives 50% viability; a fit beyond the top or the lowest dose is shown as a bound at that dose. For AUC the same curve is integrated over the 256-fold range of doses and scaled to a fraction: 1 means no effect, lower means more sensitive. For some of these results: Where the top dose is marked as inferred, it is not printed in the source and was worked back from the curve model.

The pIC50 is −log10 of the IC50, conventionally taken in molar units.

What all share (test): Viability of human cancer cell lines after 72 h of drug (GDSC screen)
Compound in one assay: CO[C@@H]1[C@H](N(C)C(=O)c2ccccc2)C[C@H]2O[C@]1(C)n1c3ccccc3c3c4c(c5c6ccccc6n2c5c31)C(=O)NC4 [Midostaurin]
The settings on record: top dose 0.512 µM; top dose inferred. The protocol: (§1)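 Human cancer cell lines in 384-well plates, medium with 10% serum, drug for 72 h over a 256-fold dose range (nine 2-fold or five 4-fold steps up to the top dose). Adherent lines were fixed and stained with the nucleic acid dye Syto60, suspension lines read with resazurin; signal relative to control wells, capped at 0 and 100%. One two-parameter sigmoid per drug and line, fitted in a mixed model over all curves with the slope shared within a line.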

Compound in the next assay: Cc1ccc(C(=O)Nc2cccc(C(F)(F)F)c2)cc1Nc1nc(-c2cccnc2)nc2c1cnn2C [NVP-BHG712]
Particulars: top dose 10.24 µM; top dose inferred. The protocol:
as §1

Compound in the next assay: CO[C@@]12[C@H](COC(N)=O)C3=C(C(=O)C(C)=C(N)C3=O)N1C[C@@H]1N[C@@H]12 [Mitomycin C]
Particulars: top dose 16 µM. The protocol:
as §1

Compound in another assay: O=C(O)CNC(=O)c1c(O)c2ccccc2n(Cc2ccccc2)c1=O [IOX2]
Particulars: top dose 0.1 µM; top dose inferred. As to the method: as §1

Compound in the next assay: COc1cc(Nc2c(C#N)cnc3cc(OCCCN4CCN(C)CC4)c(OC)cc23)c(Cl)cc1Cl [Bosutinib]
Particulars: top dose 2 µM. As to the method: as §1

SW756 (cervix, adherent): the AUC with Midostaurin is 0.984; with NVP-BHG712, 0.98; with Mitomycin C, 0.439; with IOX2, 0.982; with Bosutinib, 0.569. Besides, the pIC50 is below 6.29 with Midostaurin; below 4.99 with NVP-BHG712; 6.18 with Mitomycin C; below 7.00 with IOX2; 6.70 with Bosutinib.

CAL-85-1 (breast, adherent): the AUC with Midostaurin stood at 0.87; in the assay with NVP-BHG712, 0.882; with Mitomycin C, 0.197; in the assay with IOX2, 0.978; with Bosutinib, 0.976. Further, the negative logarithm of the IC50 (pIC50) with Midostaurin is below 6.29; in the assay with NVP-BHG712, below 4.99; with Mitomycin C it was 7.03; with IOX2 it was below 7.00; in the assay with Bosutinib, below 5.70.

Take “SBC-5 (small cell lung carcinoma, adherent)”: the AUC with Midostaurin worked out at 0.88; in the assay with NVP-BHG712, 0.946; with Mitomycin C, 0.055; with IOX2, 0.973; with Bosutinib, 0.975. Further, the pIC50 was 6.44 with Midostaurin; below 4.99 with NVP-BHG712; above 7.20 with Mitomycin C; below 7.00 with IOX2; below 5.70 in the assay with Bosutinib.

CCK-81 (large intestine, adherent): the AUC in the assay with Midostaurin is 0.984; with NVP-BHG712 it was 0.894; in the assay with Mitomycin C, 0.457; with IOX2, 0.989; with Bosutinib, 0.899. Besides, the pIC50 with Midostaurin is below 6.29; with NVP-BHG712, below 4.99; with Mitomycin C, 6.11; with IOX2, below 7.00; in the assay with Bosutinib, below 5.70.

Take H4 (glioma, adherent): the AUC in the assay with Midostaurin turned out to be 0.744; in the assay with NVP-BHG712, 0.932; with Mitomycin C it was 0.051; with IOX2 it was 0.983; with Bosutinib, 0.818. Also, the pIC50 with Midostaurin is 6.80; in the assay with NVP-BHG712, below 4.99; with Mitomycin C, above 7.20; with IOX2 it was below 7.00; with Bosutinib it was 5.95.

As for “NCI-H2291 (lung adenocarcinoma, adherent)”, the AUC worked out at 0.984 with Midostaurin; 0.984 in the assay with NVP-BHG712; 0.915 with Mitomycin C; 0.978 in the assay with IOX2; 0.968 with Bosutinib. Further, the pIC50 with Midostaurin is below 6.29; with NVP-BHG712, below 4.99; in the assay with Mitomycin C, below 4.80; in the assay with IOX2, below 7.00; in the assay with Bosutinib, below 5.70.

For the cell line “NCI-H2347 (lung adenocarcinoma, adherent)”, the AUC with Midostaurin is 0.937; in the assay with NVP-BHG712 it was 0.916; with Mitomycin C it was 0.481; with IOX2, 0.971; with Bosutinib it was 0.983. Further, the pIC50 with Midostaurin was below 6.29; with NVP-BHG712, below 4.99; with Mitomycin C it was 6.06; with IOX2, below 7.00; in the assay with Bosutinib, below 5.70.

Take “HARA (lung squamous cell carcinoma, adherent)”: the AUC amounted to 0.925 with Midostaurin; 0.946 with NVP-BHG712; 0.454 with Mitomycin C; 0.98 with IOX2; 0.762 with Bosutinib. Further, the pIC50 in the assay with Midostaurin is below 6.29; with NVP-BHG712 it was below 4.99; with Mitomycin C it was 6.13; in the assay with IOX2, below 7.00; with Bosutinib it was 6.08.

As to TT2609-C02 (thyroid, adherent), the AUC in the assay with Midostaurin was 0.697; with NVP-BHG712, 0.885; in the assay with Mitomycin C, 0.093; with IOX2, 0.983; with Bosutinib, 0.752. Besides, the pIC50 is 6.92 with Midostaurin; below 4.99 with NVP-BHG712; above 7.20 with Mitomycin C; below 7.00 with IOX2; 6.15 with Bosutinib.

Take PA-TU-8902 (pancreas, adherent): the AUC came to 0.943 in the assay with Midostaurin; 0.842 in the assay with NVP-BHG712; 0.632 in the assay with Mitomycin C; 0.973 in the assay with IOX2; 0.981 with Bosutinib. Also, the pIC50 with Midostaurin is below 6.29; in the assay with NVP-BHG712, 5.05; in the assay with Mitomycin C it was 5.61; with IOX2 it was below 7.00; with Bosutinib, below 5.70.

As for LNZTA3WT4 (glioma, adherent), the AUC with Midostaurin is 0.935; with NVP-BHG712, 0.973; with Mitomycin C it was 0.551; with IOX2, 0.987; in the assay with Bosutinib, 0.943. Further, the pIC50 with Midostaurin is below 6.29; with NVP-BHG712, below 4.99; with Mitomycin C, 5.86; in the assay with IOX2, below 7.00; with Bosutinib, below 5.70.

As to RCM-1 (large intestine, adherent), the AUC is 0.923 with Midostaurin; 0.964 in the assay with NVP-BHG712; 0.508 in the assay with Mitomycin C; 0.976 with IOX2; 0.934 in the assay with Bosutinib. Besides, the pIC50 is below 6.29 in the assay with Midostaurin; below 4.99 in the assay with NVP-BHG712; 5.98 in the assay with Mitomycin C; below 7.00 with IOX2; below 5.70 with Bosutinib.

For the cell line COLO-680N (oesophagus, adherent), the AUC with Midostaurin amounted to 0.878; with NVP-BHG712, 0.986; in the assay with Mitomycin C, 0.335; with IOX2, 0.974; with Bosutinib, 0.97. The pIC50 in the assay with Midostaurin is below 6.29; with NVP-BHG712 it was below 4.99; in the assay with Mitomycin C, 6.50; in the assay with IOX2, below 7.00; with Bosutinib it was below 5.70.
